Measurements reported in the supplement of paper PMC7125110.
± gives the standard error. Variants at the floor of the assay are shown more often than the library holds them.

B1: glmS ribozyme (parent)
chain: AUAAAAGCGCCAGAACUACAGAAAUGUAGUUGACGAGGAGGAGGUUUAUCGAAUUUUCGGCGGAUGCCUCCAAA

What was measured:
Settings in all cases: with glucosamine-6-phosphate
[1] = variants of: B1; test: self-cleavage kobs at 640 uM GlcN6P; higher = faster cleavage; RNA array
In short: (§1)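 Barcoded ribozyme variants were transcribed in situ on sequenced MiSeq chips by E. coli RNA polymerase. At 37 °C, a hybridised Cy3 probe tracked them while glucosamine-6-phosphate (40 μM to 10 mM) in HEPES/KCl/Mg(OAc)2 buffer flowed in and tiles were imaged over ~14 h. Per-tile medians of signals normalised to baseline and to non-cleaving reference variants were fit to one- or two-exponential decays, giving kobs. kcat and KM came from weighted Michaelis–Menten fits across concentrations.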

[2] = variants of: B1; test: self-cleavage kobs at 10000 uM GlcN6P; higher = faster cleavage; RNA array
In short: as §1

[3] = variants of: B1; test: self-cleavage kobs at 160 uM GlcN6P; higher = faster cleavage; RNA array
In short: as §1

[4] = variants of: B1; test: self-cleavage kobs at 2500 uM GlcN6P; higher = faster cleavage; RNA array
In short: as §1

Variant | self-cleavage kobs at 640 uM GlcN6P [1] [s⁻¹] | self-cleavage kobs at 10000 uM GlcN6P [2] [s⁻¹] | self-cleavage kobs at 160 uM GlcN6P [3] [s⁻¹] | self-cleavage kobs at 2500 uM GlcN6P [4] [s⁻¹]
A36U U56A | < 1e-05 | < 1e-05 |  | 
C34G A52C G66U | < 1e-05 |  |  | 
U30C G44C C61U | < 1e-05 |  |  | 
G35A U54C | < 1e-05 | < 1e-05 | < 1e-05 | 
U30C A42C U55C | < 1e-05 |  |  | 
C34A U45A C71A | < 1e-05 |  |  | 
A33C G35A | < 1e-05 | < 1e-05 | < 1e-05 | < 1e-05
G38U U46C G62U G63A | < 1e-05 |  |  | < 1e-05
G38A G43A A52G | < 1e-05 |  |  | < 1e-05
C34G G40U U46A | < 1e-05 |  |  | 
G35U G40U U45A C67G U69A | < 1e-05 |  |  | < 1e-05
U30C A33C G43U G51A C58A | < 1e-05 |  |  | < 1e-05
G32U G43A | < 1e-05 | < 1e-05 | < 1e-05 | < 1e-05
G37A C50U U55C G59C | < 1e-05 |  |  | 
A33C G51U C67A | < 1e-05 |  |  | 
U30G A33U G51C | < 1e-05 |  |  | < 1e-05
A33G G51A C61G | < 1e-05 |  | < 1e-05 | 
A39G G62C C71G | < 1e-05 |  |  | 
G37U G38U G51A C58A | < 1e-05 |  |  | 
G32U A33C G38C C61U | < 1e-05 |  |  | < 1e-05
C34G G38A U55A | < 1e-05 |  |  | 
G37U A42C | < 1e-05 | < 1e-05 | < 1e-05 | < 1e-05
G37C U45G G63U | < 1e-05 |  |  | < 1e-05

Variant | self-cleavage kobs at 640 uM GlcN6P [1] [s⁻¹] | self-cleavage kobs at 10000 uM GlcN6P [2] [s⁻¹] | self-cleavage kobs at 160 uM GlcN6P [3] [s⁻¹] | self-cleavage kobs at 2500 uM GlcN6P [4] [s⁻¹]
U30A A36C U45G | < 1e-05 |  |  | 
A33U U46C A48U G60U | < 1e-05 |  | < 1e-05 | < 1e-05
G38U G40A A42C U57A | < 1e-05 | < 1e-05 |  | < 1e-05
C34A G43A G51C U56G | < 1e-05 |  |  | 
A36U U57A | < 1e-05 |  |  | < 1e-05
G29U G44A G63A U65C C67U | < 1e-05 |  | < 1e-05 | < 1e-05
U31C G37A | 0.000113 ± 2.3e-05 | 0.000359 ± 3.4e-05 |  | 0.000119 ± 1.8e-05
A39C U45C | 9.68e-05 ± 1.7e-05 | 0.000408 ± 4.5e-05 |  | 0.000214 ± 3.8e-05
U30C G35A A52U | < 1e-05 |  |  | < 1e-05
A33C G43U G63U | < 1e-05 |  |  | < 1e-05
G32A C34G G38C C68U | < 1e-05 |  | < 1e-05 | 
C34U U45C U65A | < 1e-05 |  | < 1e-05 | 
A33U C58G | < 1e-05 |  |  | < 1e-05
U30C G38A | < 1e-05 | < 1e-05 |  | 
U30C C70U | 0.000125 ± 1e-05 |  | 6.03e-05 ± 7.8e-06 | 
U30C C70A | 7.04e-05 ± 2.5e-05 | 4.43e-05 ± 1.5e-05 | 5.93e-05 ± 2.3e-05 | 5.57e-05 ± 1.8e-05
A33U U54C G59U G66C | < 1e-05 |  |  | 
U30G U56A C68G | 5.24e-05 ± 2.3e-05 |  |  | 
U31C A36U A64C C67U | < 1e-05 |  |  | 
G35A A52C C58G G63U U65A | < 1e-05 |  | < 1e-05 | < 1e-05
U31A G35C A48G | < 1e-05 |  | < 1e-05 | 
A39C G62C | < 1e-05 | < 1e-05 | < 1e-05 | < 1e-05
G37C U49C | < 1e-05 | < 1e-05 |  | < 1e-05

Variant | self-cleavage kobs at 640 uM GlcN6P [1] [s⁻¹] | self-cleavage kobs at 10000 uM GlcN6P [2] [s⁻¹] | self-cleavage kobs at 160 uM GlcN6P [3] [s⁻¹] | self-cleavage kobs at 2500 uM GlcN6P [4] [s⁻¹]
A36G G66C | < 1e-05 |  | < 1e-05 | < 1e-05
G35A G40U C70A | < 1e-05 |  |  | 
C34U C70U | < 1e-05 |  | < 1e-05 | 
A36C G60U U69G | < 1e-05 |  |  | 
A36U A39C U56C | < 1e-05 |  |  | < 1e-05
G37C G51C | < 1e-05 | < 1e-05 | < 1e-05 | 
C34A G43U A52U | < 1e-05 | < 1e-05 | < 1e-05 | 
A33U U45G C71G | < 1e-05 |  |  | < 1e-05
U30G U54A C67G | 0.000105 ± 2.2e-05 |  |  | 
U31G A33C U45A U56C | < 1e-05 | < 1e-05 | < 1e-05 | < 1e-05
G35U G38U C67A | < 1e-05 |  |  | 
A36C U57G U65G | < 1e-05 | < 1e-05 |  | 
G35A A52C G63U | < 1e-05 |  |  | 
G38U A48G C71U | < 1e-05 |  |  | 
A33G G40U C58A C67A | < 1e-05 |  |  | < 1e-05
A39C U45A C68G | < 1e-05 |  |  | 
G38U U57G | < 1e-05 |  |  | < 1e-05
G37A U47C | 0.000181 ± 3.8e-05 | 0.00103 ± 0.00045 | 8.31e-05 ± 2.2e-05 | 0.000398 ± 7.7e-05
A36G G37C U46C | < 1e-05 |  |  | < 1e-05
A36G A52U U57A | < 1e-05 |  |  | < 1e-05
G29U A36G A42C G44A G60C | < 1e-05 |  | < 1e-05 | < 1e-05
G35U U55A | < 1e-05 | < 1e-05 |  | < 1e-05
G37U C50U G59U G60U | < 1e-05 |  |  | 

Variant | self-cleavage kobs at 640 uM GlcN6P [1] [s⁻¹] | self-cleavage kobs at 10000 uM GlcN6P [2] [s⁻¹] | self-cleavage kobs at 160 uM GlcN6P [3] [s⁻¹] | self-cleavage kobs at 2500 uM GlcN6P [4] [s⁻¹]
G37C A39G U45A U49A | < 1e-05 |  |  | < 1e-05
A33C A42U C68G | < 1e-05 |  |  | < 1e-05
U31A A33U G40A | < 1e-05 |  |  | 
U31G G37A G63U | < 1e-05 |  |  | < 1e-05
U31C U49G G66U | < 1e-05 |  |  | 
G35A G51A C67A | < 1e-05 |  |  | < 1e-05
G38A U46C U54A G59U | < 1e-05 |  |  | < 1e-05
A33C G51C G59A | < 1e-05 |  | < 1e-05 | 
U31A A42U G59U | < 1e-05 |  |  | 
U31C C34G G44A U46C C58U | < 1e-05 |  |  | 
U30C G35U | < 1e-05 | < 1e-05 |  | < 1e-05
G38C A48G G66A | < 1e-05 |  |  | < 1e-05
G37A C58U | < 1e-05 |  |  | < 1e-05
A36C A48U A53C C58A G59C G60A G66C | < 1e-05 |  |  | 
G32C G40U A42G C70U | < 1e-05 |  | < 1e-05 | < 1e-05
A39C U57C C71U | < 1e-05 |  |  | 
A39U A64C | 5.07e-05 ± 7e-06 | 0.00021 ± 1.9e-05 |  | 9.58e-05 ± 1.3e-05
U30C C34A A36G A52U | < 1e-05 |  |  | < 1e-05
U31G A42C U47A A48U C61U C71U | < 1e-05 |  | < 1e-05 | < 1e-05
G35U G59U G63A | < 1e-05 |  | < 1e-05 | 
U31A C34U A36G | < 1e-05 |  |  | < 1e-05
G37U U49A U54A | < 1e-05 |  |  | 
U30C U69A | 0.000111 ± 3e-05 | 2.76e-05 ± 6.9e-06 | 5.29e-05 ± 1.5e-05 | 5.71e-05 ± 1.2e-05

Variant | self-cleavage kobs at 640 uM GlcN6P [1] [s⁻¹] | self-cleavage kobs at 10000 uM GlcN6P [2] [s⁻¹] | self-cleavage kobs at 160 uM GlcN6P [3] [s⁻¹] | self-cleavage kobs at 2500 uM GlcN6P [4] [s⁻¹]
A39U G40A U45C A64C | < 1e-05 |  |  | 
A33C A39U C50U | < 1e-05 |  |  | 
C34A G51U C61A G63C | < 1e-05 |  |  | 
A36U G37A U46G | < 1e-05 | < 1e-05 |  | < 1e-05
U31G U45G | 0.000405 ± 0.0001 | 0.00164 ± 0.00042 |  | 0.00155 ± 0.00034
C34U G41U | < 1e-05 | < 1e-05 | < 1e-05 | < 1e-05
C34U U46A | < 1e-05 | < 1e-05 | < 1e-05 | < 1e-05
G32U A52U C58U C61U | < 1e-05 |  |  | < 1e-05
G35C U45G G59A | < 1e-05 |  |  | 
G38U A39C C58G | < 1e-05 |  |  | 
U31C A33C G63U C67G | < 1e-05 |  | < 1e-05 | 
A36G U46A | < 1e-05 | < 1e-05 |  | 
G37A A39G U55A G60A | < 1e-05 |  |  | < 1e-05
G37A G66C | 0.000117 ± 1.8e-05 | 0.000439 ± 8.7e-05 | 4.54e-05 ± 1.4e-05 | 0.000357 ± 5.8e-05
G38C G43C G44A G63C A64U C70U | < 1e-05 |  |  | < 1e-05
G37C U65C | < 1e-05 |  | < 1e-05 | < 1e-05
U30G C34U U47A | < 1e-05 |  |  | 
C34A C61G C67U | < 1e-05 |  | < 1e-05 | < 1e-05
U31C U49C | < 1e-05 |  | < 1e-05 | 
A33C U65C | < 1e-05 |  |  | < 1e-05
